Source: article PMC6032384 (International Journal of Molecular Sciences, 2018)
Where two headings read alike, the source gives them in different places.

Key:
[1] = tested on: SCC-9 (human oral squamous cell carcinoma)
[2] = tested on: SCC-9 (human oral squamous cell carcinoma); assay: cells; conditions: SCC-9, 72 h

| Compound | Selectivity index (SI) ([1]; IC50[MRC5]/IC50[SCC-9]) | Selectivity index (SI) ([1]; IC50[PBMC]/IC50[SCC-9]) | IC50 [2] [nM] | IC50 ([1]; SCC9, AB assay, 72 h) [nM] |
| --- | --- | --- | --- | --- |
| COc1cccc2c1C(=O)c1c(O)c3c(c(O)c1C2=O)C[C@@](O)(C(=O)CO)C[C@@H]3O[C@H]1C[C@H](N)[C@H](O)[C@H](C)O1 [DOX, Doxorubicin, reference compound] | 3 | 10.2 | 500 |  |
| Cc1c[nH]c(=O)[n-]c1=O.F[P-](F)(F)(F)(F)F.[Ru+2].c1ccc(-c2ccccn2)nc1.c1ccc(P(c2ccccc2)c2ccccc2)cc1.c1ccc(P(c2ccccc2)c2ccccc2)cc1 [CRT, [Ru(PPh3)2(Thy)(bipy)]PF6] |  |  |  | 2400 |
